# This is one part of the list. These are noisy estimates, calculated here from bound and input reads.
# Biological target: T1, Pho4 (S. cerevisiae) (UniProt P07270)
# T1 sequence: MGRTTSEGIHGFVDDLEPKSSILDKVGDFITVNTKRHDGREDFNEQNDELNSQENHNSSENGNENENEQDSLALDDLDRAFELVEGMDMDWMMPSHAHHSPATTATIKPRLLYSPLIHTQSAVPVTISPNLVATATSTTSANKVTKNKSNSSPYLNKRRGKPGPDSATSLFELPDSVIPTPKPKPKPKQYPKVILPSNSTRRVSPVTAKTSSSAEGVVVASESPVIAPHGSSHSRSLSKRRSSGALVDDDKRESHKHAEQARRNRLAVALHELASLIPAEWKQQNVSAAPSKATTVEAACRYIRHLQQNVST
# Test: relative binding free energy (BET-seq); higher = weaker binding
# Details: reference: library average
row,Sequence,relative binding free energy
1,TGATTCACGTGTTTGT,0.28 kcal/mol
2,GCTAGCACGTGGGGCA,-0.1 kcal/mol
3,AGGGCCACGTGTTAGA,-0.05 kcal/mol
4,GTGCGCACGTGAGATG,0.11 kcal/mol
5,TAGTGCACGTGAGTAT,0.15 kcal/mol
6,GTTTTCACGTGAATTG,0.41 kcal/mol
7,GGATGCACGTGTCGGA,0.04 kcal/mol
8,GCGCGCACGTGGGGGT,-0.29 kcal/mol
9,GGTGACACGTGCTAGT,-0.09 kcal/mol
10,AGGTGCACGTGGAGAT,-0.1 kcal/mol
11,CATTTCACGTGAAATT,0.52 kcal/mol
12,CGGCACACGTGGGGTT,-0.1 kcal/mol
13,ATTTTCACGTGAGCAG,0.39 kcal/mol
14,TGGGCCACGTGGGGAT,-0.11 kcal/mol
15,GGGCTCACGTGGTTAA,0.23 kcal/mol
16,GGATCCACGTGGTAGT,0.06 kcal/mol
17,TCTGTCACGTGCGGTT,0.17 kcal/mol
18,GGGTCCACGTGGTCGT,0 kcal/mol
19,GTCGGCACGTGAATTT,0.25 kcal/mol
20,GGGGTCACGTGGTTAG,0.23 kcal/mol
21,TTATACACGTGTGGCG,0.06 kcal/mol

row,Sequence,relative binding free energy
1,TGGTCCACGTGCGTTT,0.14 kcal/mol
2,TTTTTCACGTGAATAA,0.22 kcal/mol
3,TGTTTCACGTGGTGGG,0.26 kcal/mol
4,GGATACACGTGTCTGT,0.09 kcal/mol
5,TTAAACACGTGTGGTA,0.02 kcal/mol
6,CCGGTCACGTGCGGTT,0.17 kcal/mol
7,GATTGCACGTGTGTGC,0.07 kcal/mol
8,GATGTCACGTGTTATG,0.25 kcal/mol
9,ATTGCCACGTGTTGTA,-0.15 kcal/mol
10,TGGATCACGTGGCAAT,0.19 kcal/mol
11,AGCGGCACGTGGGAGA,-0.15 kcal/mol
12,AGTTTCACGTGTAAGG,0.34 kcal/mol
13,TCGTGCACGTGGGCTT,-0.2 kcal/mol
14,GTTTCCACGTGGGGCG,0.07 kcal/mol
15,GAGTGCACGTGTGCGG,0.08 kcal/mol
16,TGCAGCACGTGTGTTG,-0.03 kcal/mol
17,TTGTACACGTGTTGCA,-0.04 kcal/mol
18,AGGGGCACGTGTTTTC,-0.11 kcal/mol
19,GGATTCACGTGTAGGG,0.28 kcal/mol
20,GGTTACACGTGTGAGT,0.19 kcal/mol
21,ATCATCACGTGTGTGC,0.27 kcal/mol

row,Sequence,relative binding free energy
1,GAGTTCACGTGCGGGG,0.24 kcal/mol
2,AGTGTCACGTGATGCT,0.17 kcal/mol
3,TTCTCCACGTGGGGGT,-0.02 kcal/mol
4,ATTTGCACGTGGGAGA,-0.07 kcal/mol
5,AAGGACACGTGGTATT,0.08 kcal/mol
6,GTCAACACGTGGTGGA,-0.04 kcal/mol
7,TTGTTCACGTGGTGAG,0.21 kcal/mol
8,TTTGGCACGTGGATGT,-0.15 kcal/mol
9,AACTTCACGTGGTTGT,0.11 kcal/mol
10,ACTGTCACGTGATGTG,0.24 kcal/mol
11,AGGGTCACGTGTCAAT,0.15 kcal/mol
12,GGGAGCACGTGGGTAG,-0.26 kcal/mol
13,GTGAACACGTGGTGAT,-0.08 kcal/mol
14,TCTTTCACGTGATTCT,0.29 kcal/mol
15,TCTTACACGTGTGATG,0.18 kcal/mol
16,GTTATCACGTGGCTAG,0.06 kcal/mol
17,TGTTACACGTGCGTAT,0.01 kcal/mol
18,TCAGTCACGTGTAGTT,0.14 kcal/mol
19,ATAGGCACGTGCAAGG,-0.08 kcal/mol
20,TAGGGCACGTGGGAGA,-0.15 kcal/mol
21,ATAGTCACGTGGTTGC,-0.01 kcal/mol
